In PubChem BioAssay AID1745847 (National Center for Advancing Translational Sciences (NCATS), 2022):
About 670 (32%) of roughly 2,100 compounds were called active. Inconclusive results, whose numbers are uncertain, are shown with a selection of clear calls. The call rests on the fitted dose curve; in most records, active means well fitted inhibition curve with a large enough effect; inconclusive means small, poorly fitted or top-dose-only effect; inactive means no such curve, though single readings can be large or run the other way. Where the call is inconclusive, the potency comes from a doubtful curve fit.

Assay: CMV-Luciferase Counterscreen for Inhibitors of ATXN expression; further: nearly all actives have a fitted effect of over 55% in size
Settings: HEK-293 CMV-luciferase reporter, luminescence, 24 h; series mostly up to 57.5 µM
On the % scale 0 is the no-effect control and ±100 the full control effect; potency means the concentration at half of the fitted maximal effect; tags describe the fitted curve by direction and shape.

Structure (SMILES) | Potency | activity change, negative = inhibition
Cc1c(C(=O)Nc2nonc2-c2ccc(F)cc2)oc2ccc(F)cc12 | active: 11.2 µM | 
CCCC(=O)NC(c1ccc(OC)cc1)c1ccc2cccnc2c1O (stereo not given) | active: 3.16 µM | 
COc1cccc(NC(=O)CSc2nc3ncc(Br)cc3[nH]2)c1 |  | inactive: 193% [at 11.4 µM]
CCOC(=O)c1c(NC(=O)COC(=O)c2ccccc2NC)sc(C(=O)N(C)C)c1C |  | inactive: -21.4% [at 11.4 µM]
O=C(CN1c2cccc3cccc(c23)S1(=O)=O)NCc1ccc(Cl)cc1 | inconclusive: 8.91 µM [inhibitor, partial curve, poor fit] | 
CCc1cc2c(=O)c(-c3cnn(-c4ccccc4)c3)coc2c(CN2CCOCC2)c1O | inconclusive: 3.98 µM [inhibitor, partial curve] | 
CC(C)Nc1nc(NCCOc2ccccc2)c2sccc2n1 | inconclusive: 25.1 µM [inhibitor, single point] | 
O=C(CSc1nc2ncc(Cl)cc2[nH]1)Nc1cccc(F)c1 | inconclusive: 3.98 µM [inhibitor, partial curve, poor fit] | 
CC(=O)Nc1cccc(-c2ccnc3c2CC(C)(C(=O)Nc2ccc(Cl)c(C(F)(F)F)c2)O3)c1 (stereo not given) | inconclusive: 20 µM [inhibitor, partial curve, poor fit] | 
CC(=O)Nc1cc(-c2ccc(C(=O)NC3CC3)cc2)cn2c(-c3cccc(C(C)=O)c3)cnc12 | inactive | 
CC1CC2(C)Oc3ccccc3CC2C(C)C1CNCCCN(C)C (stereo not given) | inconclusive: 35.5 µM [inhibitor, single point] | 
Nc1cc2c3c(cccc3c1)C(=O)N(CCN1CCCC1)C2=O | inconclusive: 20 µM [inhibitor, single point] | 
COc1ccc(C(=O)NC(=S)NNC(=O)c2cnccn2)cc1 | inconclusive: 1.58 µM [inhibitor, full curve] | 
COc1cccc(OCC(=O)Nc2cc(Cl)ccc2Oc2ccccc2)c1 | inconclusive: 3.16 µM [inhibitor, single point] | 
CN(CC(=O)Nc1ccc(Cl)cc1)C(=O)c1ccc(S(=O)(=O)Nc2ccccc2)cc1 | inconclusive: 17.8 µM [inhibitor, partial curve, poor fit] | 
COc1ccc(CNC(=O)Nc2nc(C(N)Cc3ccc(C(F)(F)F)cc3)cs2)cc1 (stereo not given) | inconclusive: 22.4 µM [inhibitor, single point] | 
COc1cccc2c1C(=O)c1c(O)c3c(c(O)c1C2=O)C[C@](O)(C(C)=O)C[C@H]3O[C@@H]1C[C@@H](N)[C@@H](O)[C@@H](C)O1 | inconclusive: 7.94 µM [inhibitor, partial curve, poor fit] | 
O=C(O)CCn1cc(/C=C/C(=O)c2ccc(Cl)cc2)c(-c2ccc(Br)cc2)n1 | active: 10 µM | 
Cc1[nH]c2ccccc2c1SCc1nnc(SCc2ccc(Cl)cc2)n1C | inconclusive: 39.8 µM [inhibitor, single point] | 
NC(Cc1ccc(Cl)cc1)c1csc(NC(=O)Nc2ccccc2-c2ccccc2)n1 (stereo not given) | inconclusive: 4.47 µM [inhibitor, partial curve, poor fit] | 
CCn1c2ccccc2c2cc(/C=N/NC(=O)c3ccc(O)cc3)ccc21 | inactive | 
O=C(NNC(=O)c1cccc2ccccc12)c1ccccc1O | inconclusive: 11.2 µM [inhibitor, partial curve, poor fit] | 

Structure (SMILES) | Potency | activity change, negative = inhibition
Cc1cc(OCC(=O)NC(C)c2ccccc2)ccc1[N+](=O)[O-] (stereo not given) |  | inactive: -19.4% [at 11.4 µM]
CCCCC(=O)NC(c1ccccc1Cl)c1ccc2cccnc2c1O (stereo not given) | active: 2.51 µM | 
Cn1c2ccccc2c(=O)c2c(=O)n(C3CCCCC3)c(-c3cccs3)nc21 | inconclusive: 22.4 µM [inhibitor, single point] | 
O=C(COc1ccc(Cl)cc1)N/N=C/c1cccc2cccnc12 | inconclusive: 10 µM [inhibitor, partial curve] | 
COc1cc2c3nnc(-c4ccc(F)cc4)c-3cn(Cc3ccc(C)cc3)c2cc1OC | inactive | 
CCOC(=O)c1c(CSc2nc(C)cc(C)c2C#N)n(C)c2cc(Br)c(OC(C)=O)cc12 | inconclusive: 14.1 µM [inhibitor, partial curve, poor fit] | 
Cc1ccc(C(=O)N(CCCN(C)C)c2nc3ccc(Cl)cc3s2)cc1C | inconclusive: 39.8 µM [inhibitor, single point] | 
Cc1ccc(C(=O)N/C(=C/c2ccc(-c3ccc([N+](=O)[O-])cc3)o2)C(=O)NCCCN(C)C)cc1 | inactive | 
c1ccc(-c2nnc(-c3ccccn3)nc2NC2CCCCC2)cc1 | inconclusive: 2.51 µM [inhibitor, full curve, poor fit] | 
O=c1c2c(nc3c(-c4cccc(Br)c4)c[nH]n13)CCCC2 | active: 3.55 µM | 
CN(C)C(=O)c1cccc(-c2cnc3c(NC=O)cc(-c4ccccc4N(C)C)cn23)c1 |  | inactive: -27.7% [at 11.4 µM]
CC(=NNc1nc2ccccc2o1)c1ncccn1 | inconclusive: 0.224 µM [inhibitor, full curve, poor fit] | 
Cc1ccccc1N=Nc1ccc(O)c2ncccc12 | active: 1.41 µM | 
CN1CCN(CCNC(=O)c2ccc3nc(-c4ccc(F)cc4)c(-c4ccc(F)cc4)nc3c2)CC1 | inactive | 
CC(C)n1c(NCc2cc(Cl)ccc2O)nc2ccccc21 | inconclusive: 3.98 µM [inhibitor, single point] | 
CCc1cc[n+](C2=C([O-])c3ccccc3C(=O)/C2=N\S(=O)(=O)c2cccs2)cc1 | active: 20 µM | 
COc1cc(/C=N\NC(=O)CC#N)ccc1OC/C=C/c1ccccc1 | inconclusive: 25.1 µM [inhibitor, single point] | 
Clc1c(Cl)c(Cl)c2n[nH]nc2c1Cl | inconclusive: 25.1 µM [inhibitor, single point] | 
CC(CCc1ccccc1)NC(=O)c1ccc(C(=O)NC(C)CCc2ccccc2)cc1 (stereo not given) | inconclusive: 4.47 µM [inhibitor, partial curve] | 
CCc1ccc(-c2cc(C(F)(F)F)n3nc(C(=O)Nc4cnn(Cc5ccc(C)cc5)c4)cc3n2)s1 | inactive | 
O=c1ccc2ccccc2c2ccccc12 | inconclusive: 39.8 µM [inhibitor, single point] | 
CN(CCc1ccccc1)c1cc2c(c3c1ccn3C)C1CCC2O1 (stereo not given) | inconclusive: 31.6 µM [inhibitor, single point] | 

Structure (SMILES) | Potency | activity change, negative = inhibition
Cc1cccc(Nc2nc(N)nc(CCl)n2)c1C | inconclusive: 3.55 µM [inhibitor, partial curve, poor fit] | 
Cc1ccc(NC(=O)CNc2cccc(Br)c2)cc1S(=O)(=O)N1CCOCC1 | inconclusive: 3.16 µM [inhibitor, partial curve] | 
Cc1cc(SCC(=O)N/N=C/c2ccc(O)cc2O)c(C)cc1Br | inconclusive: 7.08 µM [inhibitor, partial curve, poor fit] | 
O=C(Nc1ccc2oc(=O)ccc2c1)c1ccc(-c2cccc(Cl)c2)o1 | inactive | 
N#Cc1c(N)n(C2OC(CO)C(O)C2O)c2ncnc(N)c12 (stereo not given) | inactive | 
COc1ccc(C(=O)NC(=S)NNC(=O)c2c(-c3ccccc3)noc2C)cc1OC | active: 10 µM | 
O=C(N/N=C/c1cc([N+](=O)[O-])ccc1O)c1ccc(COc2ccc3c(c2)CCC3)o1 | inconclusive: 14.1 µM [inhibitor, partial curve, poor fit] | 
CCn1nc(C(=O)Nc2ccccc2N2CCCC2)c2ccccc2c1=O | inconclusive: 28.2 µM [inhibitor, partial curve, poor fit] | 
COc1ccc(/C=C/C(=O)c2ccc([N+](=O)[O-])o2)cc1OC | inconclusive: 39.8 µM [inhibitor, single point] | 
Cc1ccc2c(c1)-c1c(cnn1CC(=O)N1CCCN(Cc3ccccc3F)C1)CO2 |  | inactive: -25.8% [at 11.4 µM]
Oc1c(CN2CCN(c3ccccc3)CC2)cc(Br)c2cccnc12 | inconclusive: 1.78 µM [inhibitor, full curve, poor fit] | 
CCN(CC)c1ccc(/C=N/NC(=O)Cc2cccs2)c(O)c1 | active: 2.82 µM | 
COC(=O)c1cc(=O)n(CCc2ccc(OC)c(OC)c2)c(=Nc2ccc(F)c(Cl)c2)s1 | inconclusive: 3.55 µM [inhibitor, single point] | 
NC(=O)c1cccc(Nc2nc(C(N)Cc3ccc(C(F)(F)F)cc3)cs2)n1 (stereo not given) | inconclusive: 3.55 µM [inhibitor, single point] | 
O=C1Nc2c(Br)cc(Br)c3cccc1c23 | inactive | 
Cc1cc(C)n(-c2ccc(C(=O)N3CCN(S(=O)(=O)c4cccc(Br)c4)CC3)cc2)n1 | inconclusive: 3.16 µM [inhibitor, partial curve, poor fit] | 
NS(=O)(=O)c1ccc(CCNc2ncnc3c2c(-c2ccccc2)cn3-c2ccc(F)cc2)cc1 | inconclusive: 22.4 µM [inhibitor, partial curve, poor fit] | 
O=C(c1ccc(-c2nnc(Nc3cccc(Cl)c3)c3ccccc23)cc1)N1C[C@H]2C[C@H](C1)c1cccc(=O)n1C2 |  | inactive: 46% [at 11.4 µM]
O=c1[nH]c(CN2CCN(c3ncccn3)CC2)nc2c(Br)cc(Br)cc12 |  | inactive: -16.4% [at 11.4 µM]
COc1cc(-c2nnc(SCC(=O)N(Cc3ccccc3)C(C)(C)C)o2)cc(OC)c1OC | inconclusive: 6.31 µM [inhibitor, single point] | 
COc1ccccc1CNc1nc(NC(C)C)nc2cc(-c3ccccc3)sc12 | inconclusive: 22.4 µM [inhibitor, single point] | 
